# The other results are listed elsewhere or left out.
# B1: PX9961C-bth-497-22-497 (Bacteroides thetaiotaomicron) (protein)
# chain: DWLDLNTTSSVETGQAIVTLDDAQIALNGIYRLASGHSYYGDNYWYYGDCRAADVQARITKGDGKRVSPYYEYNVLASDNLNIVLPWNTVYKVIRQTNNLIQKIESGSIQSSDTKELNRIKSEALVMRGLSLFNLTRLFGMPYTNDKGASLGVPIETSPSDPTHKPSRSTVAQCYEQVVSDMSNALSGLRQETSNGYINYWAAQALLSRVYLNMGEYQKAYDAATDVIKNNGGRYQLYSYEEYPNVWGQDFQSESLFELYITLSEPSGGTGGEGAPMVYANEATVDWNNLILSEDFLNLLNEDPKDVRHCLTKESVIENNTGLPAAAMHEKVYLAKFPGKTGDDPKTNNICIIRLSEVYLNAAEAGLKKGTDIEEAQGYLNDIISRRTTDTSQQVSTETFTLDRILKERRKELVGEGEVFYDYLRNGLAIERKGSWHLETLKASNAQKIEATDLRIALPIPQSEIDANPNIQQNPR
# How the values were obtained:
# Test in all cases: glycan array binding signal (z-score within array); higher = stronger binding
# Details in all cases: glycan notation: IUPAC condensed, linker removed
# Gal6S(b1-4)Glc6S = target: Gal6S(b1-4)Glc6S
# Outline: (§1)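 Glycan array data came from 3228 arrays in the Consortium for Functional Glycomics database, and only arrays with an available protein sequence were kept. Glycan names were put into IUPAC-condensed notation, and columns mapping to the same glycan were averaged. The binding signal is a within-array Z-score, averaged across arrays of one protein sequence run at different concentrations or buffers and across linkers. A negative Z-score can be read as non-binding.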
# Gal6S(b1-4)GlcNAc = target: Gal6S(b1-4)GlcNAc
# Outline: as §1
# Gal6S(b1-4)GlcNAc6S = target: Gal6S(b1-4)GlcNAc6S
# Outline: as §1
# GalNAc(a1-3)Gal = target: GalNAc(a1-3)Gal
# Outline: as §1
# GalNAc(a1-3)GalNAc = target: GalNAc(a1-3)GalNAc
# Outline: as §1
# [1] = target: GalNAc(a1-3)GalNAc(b1-3)Gal(a1-4)Gal(b1-4)Glc
# Outline: as §1
# [2] = target: GalNAc(a1-3)GalNAc(b1-3)Gal(a1-4)Gal(b1-4)GlcNAc
# Outline: as §1
# GalNAc(b1-3)Gal = target: GalNAc(b1-3)Gal
# Outline: as §1
# [3] = target: GalNAc(b1-3)Gal(a1-4)Gal(b1-4)GlcNAc
# Outline: as §1
# [4] = target: GalNAc(b1-3)Gal(a1-4)Gal(b1-4)GlcNAc(b1-3)Gal(b1-4)Glc
# Outline: as §1
# [5] = target: GalNAc(b1-3)Gal(a1-6)Gal(b1-4)Glc
# Outline: as §1
# GalNAc(b1-3)GalNAc = target: GalNAc(b1-3)GalNAc
# Outline: as §1
# GalNAc(b1-3)GlcNAc = target: GalNAc(b1-3)GlcNAc
# Outline: as §1
# GalNAc(b1-4)Gal(b1-4)Glc = target: GalNAc(b1-4)Gal(b1-4)Glc
# Outline: as §1
# GalNAc(b1-4)GlcNAc = target: GalNAc(b1-4)GlcNAc
# Outline: as §1
# [6] = target: GalNAc(b1-4)GlcNAc(b1-2)Man
# Outline: as §1
# [7] = target: GalNAc(b1-4)GlcNAc(b1-2)Man(a1-3)[GalNAc(b1-4)GlcNAc(b1-2)Man(a1-6)]Man(b1-4)GlcNAc(b1-4)GlcNAc
# Outline: as §1
# [8] = target: GalNAc(b1-4)GlcNAc(b1-3)GalNAc(b1-4)GlcNAc
# Outline: as §1
# GalNAc(b1-4)GlcNAc6S = target: GalNAc(b1-4)GlcNAc6S
# Outline: as §1
# GalNAc(b1-6)GalNAc = target: GalNAc(b1-6)GalNAc
# Outline: as §1
# GalNAc3S(b1-4)GlcNAc = target: GalNAc3S(b1-4)GlcNAc
# Outline: as §1
# GalNAc3S(b1-4)GlcNAc3S = target: GalNAc3S(b1-4)GlcNAc3S
# Outline: as §1
# [9] = target: GalNAc3S(b1-4)[Fuc(a1-3)]GlcNAc
# Outline: as §1
# GalNAc4S6S(b1-4)GlcNAc = target: GalNAc4S6S(b1-4)GlcNAc
# Outline: as §1
# GalNAc6S(b1-4)GlcNAc = target: GalNAc6S(b1-4)GlcNAc
# Outline: as §1
# Glc(a1-4)Glc = target: Glc(a1-4)Glc
# Outline: as §1
# [10] = target: Glc(a1-4)Glc(a1-4)Glc(a1-4)Glc
# Outline: as §1
# Glc(a1-6)Glc(a1-6)Glc = target: Glc(a1-6)Glc(a1-6)Glc
# Outline: as §1
# [11] = target: Glc(a1-6)Glc(a1-6)Glc(a1-6)Glc
# Outline: as §1
# Glc(b1-4)Glc = target: Glc(b1-4)Glc
# Outline: as §1
# Glc(b1-6)Glc = target: Glc(b1-6)Glc
# Outline: as §1
# GlcA(b1-3)Gal = target: GlcA(b1-3)Gal
# Outline: as §1
# GlcA(b1-3)GlcNAc = target: GlcA(b1-3)GlcNAc
# Outline: as §1
# GlcA(b1-6)Gal = target: GlcA(b1-6)Gal
# Outline: as §1
# [12] = target: GlcA3S(b1-3)Gal(b1-4)GlcNAc(b1-2)Man
# Outline: as §1
# [13] = target: GlcA3S(b1-3)Gal(b1-4)GlcNAc(b1-3)Gal(b1-4)Glc
# Outline: as §1
# [14] = target: GlcNAc(a1-3)Gal(b1-4)GlcNAc
# Outline: as §1
binder,measurement,setting,value
B1,glycan array binding signal (z-score),Gal6S(b1-4)Glc6S,1.16
same,glycan array binding signal (z-score),Gal6S(b1-4)GlcNAc,-0.23
same,glycan array binding signal (z-score),Gal6S(b1-4)GlcNAc6S,-0.411
same,glycan array binding signal (z-score),GalNAc(a1-3)Gal,0.352
same,glycan array binding signal (z-score),GalNAc(a1-3)GalNAc,-0.493
same,glycan array binding signal (z-score),[1],-0.378
same,glycan array binding signal (z-score),[2],-0.464
same,glycan array binding signal (z-score),GalNAc(b1-3)Gal,0.809
same,glycan array binding signal (z-score),[3],-0.274
same,glycan array binding signal (z-score),[4],-0.358
same,glycan array binding signal (z-score),[5],-0.255
same,glycan array binding signal (z-score),GalNAc(b1-3)GalNAc,-0.397
same,glycan array binding signal (z-score),GalNAc(b1-3)GlcNAc,-0.131
same,glycan array binding signal (z-score),GalNAc(b1-4)Gal(b1-4)Glc,-0.534
same,glycan array binding signal (z-score),GalNAc(b1-4)GlcNAc,0.187
same,glycan array binding signal (z-score),[6],-0.92
same,glycan array binding signal (z-score),[7],1.18
same,glycan array binding signal (z-score),[8],-0.536
same,glycan array binding signal (z-score),GalNAc(b1-4)GlcNAc6S,0.926
same,glycan array binding signal (z-score),GalNAc(b1-6)GalNAc,-0.455
same,glycan array binding signal (z-score),GalNAc3S(b1-4)GlcNAc,-0.244
same,glycan array binding signal (z-score),GalNAc3S(b1-4)GlcNAc3S,0.433
same,glycan array binding signal (z-score),[9],-0.346
same,glycan array binding signal (z-score),GalNAc4S6S(b1-4)GlcNAc,-0.133
same,glycan array binding signal (z-score),GalNAc6S(b1-4)GlcNAc,0.75
same,glycan array binding signal (z-score),Glc(a1-4)Glc,-0.065
same,glycan array binding signal (z-score),[10],-0.235
same,glycan array binding signal (z-score),Glc(a1-6)Glc(a1-6)Glc,-0.145
same,glycan array binding signal (z-score),[11],-0.59
same,glycan array binding signal (z-score),Glc(b1-4)Glc,-0.512
same,glycan array binding signal (z-score),Glc(b1-6)Glc,-0.561
same,glycan array binding signal (z-score),GlcA(b1-3)Gal,-0.379
same,glycan array binding signal (z-score),GlcA(b1-3)GlcNAc,0.671
same,glycan array binding signal (z-score),GlcA(b1-6)Gal,0.546
same,glycan array binding signal (z-score),[12],-0.629
same,glycan array binding signal (z-score),[13],-0.438
same,glycan array binding signal (z-score),[14],-0.64
